Measurements reported in a collection of fitness landscapes (doi:10.1016/j.celrep.2020.107928).
The full ranking holds about 81,000 sequences; the median of “one-hybrid fitness for binding NBS DNA” is about -0.1, and the highest 2% start at about 0.36. The list shows a part of the results.

B1: Caulobacter ParB omega fusion; a variant is named by its letters at X, in order, B8GW30 (parent)
chain: MESVVVGEPGMSEGRRGLGRGLSALLGEVDAAPAQAPGEQLGGSREAPIEILQRNPDQPRRTFREEDLEDLSNSIREKGVLQPILVRPSPDTAGEYQIVAGERAWRAAQRAGLKTVPIMVRELDDLAVLEIGIIENVQRADLNVLEEALSYKVLMEKFERTQENIAQTIGKSXSHVANXMRLLXLPDEVQSYLVSGELTAXHARAIAAAADPVALAKQIIEGGLSVRETEALARKAPNLSAGKSKGGRPPRVKDTDTQALESDLSSVLGLDVSIDHRGSTGTLTITYATLEQLDDLCNRLTRGI

Variants of: B1
Test: one-hybrid fitness for binding NBS DNA (the Noc-binding site; scaled: cognate 1, non-cognate 0); higher = stronger binding
Settings: with NBS DNA site
Outline: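 Pre- and post-selection plasmids were Illumina-sequenced, three replicate libraries were pooled, and any variant with under 10 reads was removed. The libraries were Caulobacter ParB with four specificity codons randomised, selected in E. coli USO through a HIS3 reporter whose site is 19 bp from the promoter. Cells grew 48 hours at 37°C on M9 without histidine, with 0.1 mM IPTG and 5 mM 3-AT. Fitness is the log change in variant-to-wild-type read ratio, rescaled against cognate and non-cognate.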

one-hybrid fitness for binding NBS DNA, 0.327:
QRLQ

one-hybrid fitness for binding NBS DNA, 1.03:
QHKR

one-hybrid fitness for binding NBS DNA, 0.722:
QYKT

one-hybrid fitness for binding NBS DNA, 0.221:
QARL

one-hybrid fitness for binding NBS DNA, ≤ 0.2:
CRRD
QQHE
HWKG
GRVV
AGSR
EMWC
HMIF
RKHM
CMQG
NAPM
ASNM
TMYV
RVWF
FWEW
VVKK
PGGG
GSHS
FWIS
REGM
PQSN
CMSL
TSSN
EGTG
LDCE
MGAY
GSTG
YNSG
CLGI
FACR
IFHT
GPAP
MAWG
RQRP
KLFV
PSLK
PFYL
DFTW
VSTT
TSHY
VVFM
GPKI
YPRV
NLRY
NPRG
PLEP
QSTC
YIGC
ELKL
SEYG
QAVG
TRCW
DVGL
DAQC
RPGW
GSPM
CYNC
VWDS
PQIT
TVCF
LEKR
QDFG
QCSL
RISL
ITAN
HPYQ
EKRR
KPFW
EDMT
LNWT
EHND
PQDM
HKEV
KDHF
TARD
HGPG
YMTR
AGLL
NAMC
KHRQ
VFPF
RDSA
FTCT
YQMC
AHQW
QFLS
PRYN
DINY
VTMT
VVLC
MHGT
MVCT
PTWF
FLPS
YKFC
LYGT
VMYC
TKSC
FSSF
QQLM
SYGR
GSHH
GPFC
LPFD
MLTL
IWDG
QDGG
TDCI
IKTV
SARN
DGTM
QPKA
QLDY
LNMH
YTHF
SPPL
CVKM
WRCR
GHPI
TVNG
MRTY
VAHS
FINR
LTER
WSNY
HWTK
RIWN
FNTD
RNRP
WMNT
YTWS
RVFW
AKQY
MISR
DRCD
SITA
VWRT
DAET
QTYG
TPPF
PWDG
RGPA
RQIP
NAYG
IRCW
VRTD
SATV
TPGV
NRER
RMMW
FPQC
SQVQ
AADY
CSVI
SQQS
TNSV
SLPQ
NSMW
QEDT
IACT
NRVT
IANC
GHDG
AAYK
CYPS
LRMA
YHID
ILVS
RKRF
HQKC
YANV
SMIF
AVWT
AVNR
GDKF
QQLI
LIAS
LDTP
MLLH
MTDE
QPRY
HSQV
SKRT
STYF
CPKR

one-hybrid fitness for binding NBS DNA, 0.246:
QYKL

one-hybrid fitness for binding NBS DNA, 0.288:
QHER

one-hybrid fitness for binding NBS DNA, 0.245:
RRMN

one-hybrid fitness for binding NBS DNA, 0.232:
IRRH

one-hybrid fitness for binding NBS DNA, 0.56:
QVRT

one-hybrid fitness for binding NBS DNA, 0.262:
RTHH

one-hybrid fitness for binding NBS DNA, 0.216:
RMKM
